Assay results: the RNAGym collection of RNA variant scans (doi:10.1093/nar/gkz1192)
The source gives no read counts; variants with many changes may rest on few reads.

B1: CPEB3 Ribozyme (parent)
chain: UAACAGGGGGCCACAGCAGAAGCGUUCACGUCGCAGCCCCUGUCAGAUUCUGGUGAAUCUGCGAAUUCUGCUGUAUAUCUC

Variants of: B1
Assay: self-cleavage, relative activity (ratio to wild type); higher = more cleavage; in vitro, sequencing
Procedure, shortened: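 CPEB3 self-cleaving ribozyme mutant libraries were made by rounds of error-prone PCR, barcoded, and transcribed in vitro with T7 RNA polymerase for 5 hours at 37°C. Cleavage occurred during transcription and a 15 min DNase I step before EDTA stop. RNAs were reverse transcribed with template switching and Illumina-sequenced, with DNA sequencing mapping barcodes to variants. Relative activity is the variant's cleaved/total read fraction divided by wild type's (minimum 5 reads), averaged across three batches.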

Row | Variant | self-cleavage
1 | C12U A13G U26C A28G A47U G63A U80A | 0.04
2 | C12U A13G U31A U43C U80C | 0.14
3 | C12U A13G U48C | 0.69
4 | C12U A13G U51G U78C | 0.57
5 | C12U A13U U26C U41C U49C A64G U76A | 0.09
6 | C12U A13U U54C U69C U80A | 0.87
7 | C12U A13U U72C | 1.25
8 | C12U A15C A28U U78C | 0.87
9 | C12U A15C A47G C68A U72C | 0.74
10 | C12U A15C U54C U72A | 1.18
11 | C12U A15G A20C U80C | 0.42
12 | C12U A15G A20G A47G U49A U51A U58C | 0.1
13 | C12U A15G A21G C38G U43A | 0.06
14 | C12U A15G A47G U76A | 0.9
15 | C12U A15G A65G U78A U80A | 0.75
16 | C12U A15G C23A U54A U58A A77U | 0.19
17 | C12U A15G C37A C39U U43A | 0.09
18 | C12U A15G C37U U60A U76C | 0.19
19 | C12U A15G U49C | 0.08
20 | C12U A15G U54C U72A | 0.33
21 | C12U A15U A18U | 0.48
22 | C12U A15U A65G U67C U69C | 0.23
23 | C12U A15U U31A C37G U43A A47G U51C | 0.07
24 | C12U A15U U31C A35U | 0.79

Row | Variant | self-cleavage
25 | C12U A15U U31C A75U | 0.98
26 | C12U A15U U54C A65G C71U C79U | 0.17
27 | C12U A18C A21G U60A A64G U69C | 0.06
28 | C12U A18C A28G A45G U49C U74A | 0.24
29 | C12U A18C C29U C32U U72C | 0.22
30 | C12U A18C U49C U60A | 0.14
31 | C12U A18G A20G G70A | 0.38
32 | C12U A18G A20G U41A A56G U60C U80A | 0.05
33 | C12U A18G A20U A21C U41C A45G | 0.04
34 | C12U A18G A35G A64G U69C | 1.31
35 | C12U A18G A45G U54C U72C U74A | 0.64
36 | C12U A18G A56G A75U | 1.04
37 | C12U A18G A56U | 0.38
38 | C12U A18G C29U U69C A75G U80A | 1.26
39 | C12U A18G C37U G73C | 1.18
40 | C12U A18G C40U | 0.61
41 | C12U A18G G19C C23U U66C | 0.17
42 | C12U A18G G33A | 0.06
43 | C12U A18G G52U U58C A64G U69C | 0.72
44 | C12U A18G U25A G52U | 0.08
45 | C12U A18G U25C G46A | 0.1
46 | C12U A18G U26C G33A | 0.41
47 | C12U A18G U49C C71A | 0.15
48 | C12U A18G U54C | 0.96

Row | Variant | self-cleavage
49 | C12U A18G U67C | 0.16
50 | C12U A18G U78C | 0.45
51 | C12U A18U A21C U41C A56G A57G U60A | 0.06
52 | C12U A18U C59A U69A | 0.84
53 | C12U A18U U25C A64U | 0.05
54 | C12U A18U U69A | 1.28
55 | C12U A20G A28U | 1.07
56 | C12U A20G A35U A47G U67A | 0.35
57 | C12U A20G A45G U69A | 0.48
58 | C12U A20G G46U U80C | 0.15
59 | C12U A20G U41C U69C | 0.67
60 | C12U A20G U43A U54C U60A U72C | 0.45
61 | C12U A20G U80C | 1.09
62 | C12U A20U A21G U26A C32A U66C | 0.08
63 | C12U A20U A35U U69A U76C | 0.07
64 | C12U A20U A45U A57G | 0.09
65 | C12U A20U G36A U41C U67A | 0.36
66 | C12U A20U G61U A65G | 0.12
67 | C12U A21G A35G G42A U51A U80G | 0.06
68 | C12U A21G A56U A57G | 0.48
69 | C12U A21G A57G U60A | 0.38
70 | C12U A21G C27A A35G A65U U74C C79U | 0.05
71 | C12U A21G G36A C40U U43G | 0.11
72 | C12U A21G U26A A56C A57G U69A U80A | 0.25

Row | Variant | self-cleavage
73 | C12U A21G U31C U41A | 0.07
74 | C12U A21G U41A U58A | 0.1
75 | C12U A21G U51C U69C | 0.36
76 | C12U A21U A45G A75U A77G | 0.45
77 | C12U A21U U58A | 0.11
78 | C12U A28G A35C | 0.43
79 | C12U A28G A56G U72A | 0.55
80 | C12U A28G A77U | 1.24
81 | C12U A28G C34U C40A A45U A56U | 0.03
82 | C12U A28G G63C | 0.3
83 | C12U A28G U67A U76C | 0.63
84 | C12U A28U A35C | 0.52
85 | C12U A28U U31C C68A | 0.14
86 | C12U A35C A45G U67C | 0.15
87 | C12U A35G A56G A64G A77U | 1.07
88 | C12U A35G A65U | 0.37
89 | C12U A35G U43C A57G U69C | 0.27
90 | C12U A35G U48A U60G | 0.2
91 | C12U A35G U51A A64U U74A | 0.87
92 | C12U A35G U51G U54C | 1.26
93 | C12U A35G U60G A75U | 0.83
94 | C12U A35G U69A U76C | 0.74
95 | C12U A35U U43C | 0.78
96 | C12U A35U U49C U69C | 0.12

Row | Variant | self-cleavage
97 | C12U A45G G63C | 1.16
98 | C12U A45G U51A U69A | 0.7
99 | C12U A45G U66C | 0.66
100 | C12U A47G G63U U78C | 1.14
101 | C12U A47G U74C | 1.3
102 | C12U C14A U67C U80C | 0.63
103 | C12U C14U A20U A45G U60C | 0.62
104 | C12U C14U G16U A56G U60A | 0.19
105 | C12U C17G A56U A64G | 0.07
106 | C12U C17U A20U U54C A56G | 0.16
107 | C12U C17U A28U A45C | 0.15
108 | C12U C17U U26A A45G | 0.34
109 | C12U C17U U54A | 1.08
110 | C12U C17U U54A U78C | 1.01
111 | C12U C23A U54A A77U | 0.28
112 | C12U C23U U26A A35U U41C U58A | 0.04
113 | C12U C27G U43A A77U | 0.28
114 | C12U C32A C40A U43C A57G | 0.31
115 | C12U C38G A45G G70A A77G | 0.04
116 | C12U C40A U54C U58C U80C | 0.05
117 | C12U C44A U72A | 0.56
118 | C12U C50A A56U | 1.3
119 | C12U G16C G24A U48A G52C | 0.05
120 | C12U G16C U25A U41A U49C | 0.26

Row | Variant | self-cleavage
121 | C12U G19U U25A A64U | 0.05
122 | C12U G24A A35G U51C | 0.09
123 | C12U G24A A35G U74G | 0.1
124 | C12U G24A U49C U69C | 0.04
125 | C12U G24A U58C U69G U72A | 0.05
126 | C12U G24C U25C U26C U60A A65C U66C | 0.05
127 | C12U G24U G33A | 0.23
128 | C12U G30A U31C | 0.09
129 | C12U G30A U43C A77G | 0.09
130 | C12U G30C U69C U80A | 0.05
131 | C12U G33A A35G A47U A65G | 0.08
132 | C12U G33C A45G A56U U72A U76C | 0.04
133 | C12U G36C U78C | 0.19
134 | C12U G53A U66C | 0.86
135 | C12U G61A U76C | 1.09
136 | C12U G63A U80C | 1.05
137 | C12U U25A A28G A45G | 0.07
138 | C12U U25A A45U U49C A65G | 0.13
139 | C12U U25A A45U U58C | 0.08
140 | C12U U25A C44U A65G | 0.08
141 | C12U U25A U26C A28G U78C | 0.06
142 | C12U U25A U26C A56C A65G U72A | 0.05
143 | C12U U25A U26C U66C U76C | 0.16
144 | C12U U25C U26A C62U U72C | 0.07

Row | Variant | self-cleavage
145 | C12U U25C U31A U54C A57G | 0.23
146 | C12U U25C U41A U51G U66C | 0.08
147 | C12U U25C U69C | 0.15
148 | C12U U25G U78A | 0.85
149 | C12U U26C A28G A35U | 0.18
150 | C12U U26C A45G U51C U72A | 0.21
151 | C12U U26C C39G U58C A64G U74C A75G | 0.04
152 | C12U U26C C50U A56G | 0.27
153 | C12U U26C U41A A45G A56G U60C U72A | 0.12
154 | C12U U26C U41C U66C | 0.38
155 | C12U U26C U54C U72A | 0.34
156 | C12U U26C U74C | 1.01
157 | C12U U31A A35G A47G U76C | 0.95
158 | C12U U31A U41C | 0.87
159 | C12U U31A U66C U67C G70U A75G | 0.21
160 | C12U U31C A35U G63U U72C | 0.89
161 | C12U U31C A45G A56C A64U | 0.13
162 | C12U U31C A45U A57G | 0.27
163 | C12U U31C A56G U78C | 0.9
164 | C12U U31C U43C U72C | 0.53
165 | C12U U31C U51A U72C | 1.22
166 | C12U U31C U58A A64G | 0.29
167 | C12U U31C U72C | 1.14
